Laboratory results from US9873709B2 (priority 2013, dated 2018).
Where a name gives a salt, the structure may show the parent alone.

molecular target: isolated recombinant JAK1 kinase domain (Homo sapiens (Human), UniProt P23458); details: read-out: JAK1 Ki; isolated recombinant JAK1 kinase domain, 25 μM ATP
Sequence (P23458 875-1153): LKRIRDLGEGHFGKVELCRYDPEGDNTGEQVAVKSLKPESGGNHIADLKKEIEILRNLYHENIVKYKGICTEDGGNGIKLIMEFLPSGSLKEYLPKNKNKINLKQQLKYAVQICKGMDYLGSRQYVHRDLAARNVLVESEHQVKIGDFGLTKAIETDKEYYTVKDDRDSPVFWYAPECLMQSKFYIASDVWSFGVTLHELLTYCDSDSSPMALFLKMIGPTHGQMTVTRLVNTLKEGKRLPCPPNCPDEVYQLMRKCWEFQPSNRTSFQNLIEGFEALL

| Ki | SMILES |
| --- | --- |
| 5.5 nM | CN1CCC(N(C)C(=O)c2ccc(Nc3nc4c(C5=CCN(C(=O)C6CCOC6)CC5)cccn4n3)cc2)CC1 (stereo not shown) [Example 2-107, N-methyl-N-(1-methyl-4-piperidyl)-4-[[8-[1-(tetrahydrofuran-3-carbonyl)-3,6-dihydro-2H-pyridin-4-yl]-[1,2,4]triazolo[1,5-a]pyridin-2-yl]amino]benzamide; hydrochloride] |
| 1.37 nM | CN1CCC(N(C)C(=O)c2ccc(Nc3nc4c(C5=CCN(C(=O)OCC(F)(F)F)CC5)cccn4n3)cc2)CC1 [Example 2-108, 2,2,2-trifluoroethyl 4-[2-[4-[methyl-(1-methyl-4-piperidyl)carbamoyl]anilino]-[1,2,4]triazolo[1,5-a]pyridin-8-yl]-3,6-dihydro-2H-pyridine-1-carboxylate] |
| 3.27 nM | CCOC(=O)N1CC=C(c2cccn3nc(Nc4ccc(C(=O)NC(C)(C)CN5CCOCC5)cc4)nc23)CC1 [Example 2-110, ethyl 4-[2-[4-[(1,1-dimethyl-2-morpholino-ethyl)carbamoyl]anilino]-[1,2,4]triazolo[1,5-a]pyridin-8-yl]-3,6-dihydro-2H-pyridine-1-carboxylate] |
| 1.59 nM | CCOC(=O)N1CC=C(c2cccn3nc(Nc4ccc(C(=O)NCCC5CCCN5C)cc4)nc23)CC1 (stereo not shown) [Example 2-111, ethyl 4-[2-[4-[2-(1-methylpyrrolidin-2-yl)ethylcarbamoyl]anilino]-[1,2,4]triazolo[1,5-a]pyridin-8-yl]-3,6-dihydro-2H-pyridine-1-carboxylate] |
| 1.7 nM | CCOC(=O)N1CC=C(c2cccn3nc(Nc4ccc(C(=O)NCCN5CCNCC5)cc4)nc23)CC1 [Example 2-112, ethyl 4-[2-[4-(2-piperazin-1-ylethylcarbamoyl)anilino]-[1,2,4]triazolo[1,5-a]pyridin-8-yl]-3,6-dihydro-2H-pyridine-1-carboxylate] |
| 1.42 nM | CCOC(=O)N1CC=C(c2cccn3nc(Nc4ccc(C(=O)NC5CCCNC5)cc4)nc23)CC1 (stereo not shown) [Example 2-113, ethyl 4-[2-[4-(3-piperidylcarbamoyl)anilino]-[1,2,4]triazolo[1,5-a]pyridin-8-yl]-3,6-dihydro-2H-pyridine-1-carboxylate] |
| 1.29 nM | CCOC(=O)N1CC=C(c2cccn3nc(Nc4ccc(C(=O)N5CC(C(=O)N(C)C)C5)cc4)nc23)CC1 [Example 2-115, ethyl 4-[2-[4-[3-(dimethylcarbamoyl)azetidine-1-carbonyl]anilino]-[1,2,4]triazolo[1,5-a]pyridin-8-yl]-3,6-dihydro-2H-pyridine-1-carboxylate] |
| 2.14 nM | CCOC(=O)N1CC=C(c2cccn3nc(Nc4ccc(C(=O)NCCC5CCN(C)CC5)cc4)nc23)CC1 [Example 2-116, ethyl 4-[2-[4-[2-(1-methyl-4-piperidyl)ethylcarbamoyl]anilino]-[1,2,4]triazolo[1,5-a]pyridin-8-yl]-3,6-dihydro-2H-pyridine-1-carboxylate] |
| 4.57 nM | CCOC(=O)N1CC=C(c2cccn3nc(Nc4ccc(C(=O)N(C)C5CCN(Cc6ccccc6)C5)cc4)nc23)CC1 (stereo not shown) [Example 2-117, ethyl 4-[2-[4-[(1-benzylpyrrolidin-3-yl)-methyl-carbamoyl]anilino]-[1,2,4]triazolo[1,5-a]pyridin-8-yl]-3,6-dihydro-2H-pyridine-1-carboxylate] |
| 3.48 nM | CCOC(=O)N1CC=C(c2cccn3nc(Nc4ccc(C(=O)N5CCC(N(CC)CC)C5)cc4)nc23)CC1 (stereo not shown) [Example 2-118, ethyl 4-[2-[4-[3-(diethylamino)pyrrolidine-1-carbonyl]anilino]-[1,2,4]triazolo[1,5-a]pyridin-8-yl]-3,6-dihydro-2H-pyridine-1-carboxylate] |
| 1.68 nM | CCOC(=O)N1CC=C(c2cccn3nc(Nc4ccc(C(=O)N(C)CCc5ccncc5)cc4)nc23)CC1 [Example 2-119, ethyl 4-[2-[4-[methyl-[2-(4-pyridyl)ethyl]carbamoyl]anilino]-[1,2,4]triazolo[1,5-a]pyridin-8-yl]-3,6-dihydro-2H-pyridine-1-carboxylate] |
| 8.78 nM | CCOC(=O)N1CC=C(c2cccn3nc(Nc4ccc(C(=O)N5CC6(CN(C)CCO6)C5)cc4)nc23)CC1 [Example 2-120, ethyl 4-[2-[4-(8-methyl-5-oxa-2,8-diazaspiro[3.5]nonane-2-carbonyl)anilino]-[1,2,4]triazolo[1,5-a]pyridin-8-yl]-3,6-dihydro-2H-pyridine-1-carboxylate] |
| 2.23 nM | CCOC(=O)N1CC=C(c2cccn3nc(Nc4ccc(C(=O)N5CCC(c6ccncc6)CC5)cc4)nc23)CC1 [Example 2-121, ethyl 4-[2-[4-[4-(4-pyridyl)piperidine-1-carbonyl]anilino]-[1,2,4]triazolo[1,5-a]pyridin-8-yl]-3,6-dihydro-2H-pyridine-1-carboxylate] |
| 4.74 nM | CCOC(=O)N1CC=C(c2cccn3nc(Nc4ccc(C(=O)N5C[C@@H]6CCN(C)[C@@H]6C5)cc4)nc23)CC1 [Example 2-122, ethyl 4-[2-[4-[(3aS,6aS)-1-methyl-2,3,3a,4,6,6a-hexahydropyrrolo[3,4-b]pyrrole-5-carbonyl]anilino]-[1,2,4]triazolo[1,5-a]pyridin-8-yl]-3,6-dihydro-2H-pyridine-1-carboxylate] |
| 1.94 nM | CCOC(=O)N1CC=C(c2cccn3nc(Nc4ccc(C(=O)N5CC6CN(C)CC(C5)O6)cc4)nc23)CC1 [Example 2-123, ethyl 4-[2-[4-(7-methyl-9-oxa-3,7-diazabicyclo[3.3.1]nonane-3-carbonyl)anilino]-[1,2,4]triazolo[1,5-a]pyridin-8-yl]-3,6-dihydro-2H-pyridine-1-carboxylate] |
| 1.34 nM | CCOC(=O)N1CC=C(c2cccn3nc(Nc4ccc(C(=O)NCc5cc(C)ccn5)cc4)nc23)CC1 [Example 2-124, ethyl 4-[2-[4-[(4-methyl-2-pyridyl)methylcarbamoyl]anilino]-[1,2,4]triazolo[1,5-a]pyridin-8-yl]-3,6-dihydro-2H-pyridine-1-carboxylate] |
| 3.82 nM | CCOC(=O)N1CC=C(c2cccn3nc(Nc4ccc(C(=O)N5CCOC6CCNCC65)cc4)nc23)CC1 (stereo not shown) [Example 2-125, ethyl 4-[2-[4-(2,3,4a,5,6,7,8,8a-octahydropyrido[4,3-b][1,4]oxazine-4-carbonyl)anilino]-[1,2,4]triazolo[1,5-a]pyridin-8-yl]-3,6-dihydro-2H-pyridine-1-carboxylate] |
| 2.33 nM | CCOC(=O)N1CC=C(c2cccn3nc(Nc4ccc(C(=O)N5CC6CNCC6C5)cc4)nc23)CC1 (stereo not shown) [Example 2-126, ethyl 4-[2-[4-(2,3,3a,4,6,6a-hexahydro-1H-pyrrolo[3,4-c]pyrrole-5-carbonyl)anilino]-[1,2,4]triazolo[1,5-a]pyridin-8-yl]-3,6-dihydro-2H-pyridine-1-carboxylate] |
| 3.13 nM | CCOC(=O)N1CC=C(c2cccn3nc(Nc4ccc(C(=O)N5CCO[C@@H]6CNC[C@H]65)cc4)nc23)CC1 [Example 2-127] |
| 2.73 nM | CCOC(=O)N1CC=C(c2cccn3nc(Nc4ccc(C(=O)N5CCC6(CCN6)CC5)cc4)nc23)CC1 [Example 2-128, ethyl 4-[2-[4-(1,7-diazaspiro[3.5]nonane-7-carbonyl)anilino]-[1,2,4]triazolo[1,5-a]pyridin-8-yl]-3,6-dihydro-2H-pyridine-1-carboxylate] |
| 4.02 nM | CCOC(=O)N1CC=C(c2cccn3nc(Nc4ccc(C(=O)N5CCNCC5)cc4)nc23)CC1 [Example 2-129, ethyl 4-[2-[4-(piperazine-1-carbonyl)anilino]-[1,2,4]triazolo[1,5-a]pyridin-8-yl]-3,6-dihydro-2H-pyridine-1-carboxylate] |
| 1.28 nM | CCOC(=O)N1CC=C(c2cccn3nc(Nc4ccc(C(=O)N5CCC(CN)C5)cc4)nc23)CC1 (stereo not shown) [Example 2-130, ethyl 4-[2-[4-[3-(aminomethyl)pyrrolidine-1-carbonyl]anilino]-[1,2,4]triazolo[1,5-a]pyridin-8-yl]-3,6-dihydro-2H-pyridine-1-carboxylate] |
| 2.87 nM | CCOC(=O)N1CC=C(c2cccn3nc(Nc4ccc(C(=O)N5CCCC6(CCCCN6)C5)cc4)nc23)CC1 (stereo not shown) [Example 2-131, ethyl 4-[2-[4-(1,8-diazaspiro[5.5]undecane-8-carbonyl)anilino]-[1,2,4]triazolo[1,5-a]pyridin-8-yl]-3,6-dihydro-2H-pyridine-1-carboxylate] |
| 2.39 nM | CCOC(=O)N1CC=C(c2cccn3nc(Nc4ccc(C(=O)N5CCCC6(CCCNC6)C5)cc4)nc23)CC1 (stereo not shown) [Example 2-132, ethyl 4-[2-[4-(2,8-diazaspiro[5.5]undecane-2-carbonyl)anilino]-[1,2,4]triazolo[1,5-a]pyridin-8-yl]-3,6-dihydro-2H-pyridine-1-carboxylate] |
| 2.65 nM | CCOC(=O)N1CC=C(c2cccn3nc(Nc4ccc(C(=O)N5CCC6(CC5)CC(N)C6)cc4)nc23)CC1 [Example 2-133, ethyl 4-[2-[4-(2-amino-7-azaspiro[3.5]nonane-7-carbonyl)anilino]-[1,2,4]triazolo[1,5-a]pyridin-8-yl]-3,6-dihydro-2H-pyridine-1-carboxylate] |
| 2.35 nM | CCOC(=O)N1CC=C(c2cccn3nc(Nc4ccc(C(=O)N5CCOC6(CCCNC6)C5)cc4)nc23)CC1 (stereo not drawn) [Example 2-134, ethyl 4-[2-[4-(l-oxa-4,8-diazaspiro[5.5]undecane-4-carbonyl)anilino]-[1,2,4]triazolo[l,5-a]pyridin-8-yl]-3,6-dihydro-2H-pyridine-1-carboxylate] |
| 2.99 nM | CCOC(=O)N1CC=C(c2cccn3nc(Nc4ccc(C(=O)N5CCC6(CCNC6)CC5)cc4)nc23)CC1 [Example 2-135, ethyl 4-[2-[4-(2,8-diazaspiro[4.5]decane-8-carbonyl)anilino]-[1,2,4]triazolo[1,5-a]pyridin-8-yl]-3,6-dihydro-2H-pyridine-1-carboxylate] |
| 1.7 nM | O=C(CCC(F)(F)F)N1CC=C(c2cccn3nc(Nc4ccc(C(=O)N5CCC6(CCNC6)CC5)cc4)nc23)CC1 [Example 2-136, 1-[4-[2-[4-(2,8-diazaspiro[4.5]decane-8-carbonyl)anilino]-[1,2,4]triazolo[1,5-a]pyridin-8-yl]-3,6-dihydro-2H-pyridin-1-yl]-4,4,4-trifluoro-butan-1-one] |
